Data: the supplement of paper PMC10338343
± gives the standard deviation. In all, about 6,600 sequences were measured (“pre-steady-state target cleavage rate”: median about 0.07, highest 2% from about 0.72 on). The entries are a selection whose mix differs from that of the whole data set.

What follows are sequences tested on MIWI (PIWIL1) piRISC loaded with Kctd7 piRNA (30 nt) (assay: pre-steady-state target cleavage rate (min^-1); MIWI and MILI are mouse PIWI proteins and EfPiwi is from a freshwater sponge; tags in brackets are library labels; higher = faster piRNA-guided slicing of the target). Conditions: guide: Kctd7 piRNA 5'p-UGUUAAUCUCUCAGAGAAGGUGACAGUGAU; auxiliary factor: 500 nM mouse GTSF1.
How it was run: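 With or without 500 nM GTSF1 partner protein, 1 nM active affinity-purified piRISC carrying one synthetic guide was mixed with 0.1 nM transcribed, DNA-blocked target RNA library in HEPES–potassium acetate buffer at 33 °C for 0–8 or 0–960 min. Uncleaved targets were sequenced and normalised to depth and to weakly complementary targets, three trials were pooled, and k3 was capped at 0.0001 min^-1. The pre-steady-state cleavage rate came from a burst-and-steady-state fit.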

Sequence | pre-steady-state target cleavage rate
UAGUGAGUCACGUUCUCUGACAGAUUAACA | 0.179 ± 0.025
AUCACUGUCACCAUCUCUGAGUGAUUAACA | 0.0284 ± 0.0055
UUCACUGUCACCUUCUCUCAGUGAUUAACA | 0.00917 ± 0.0035
AUCACAGUCACCUUCUCUGACAGAUUAACA | 0.599 ± 0.037
UUCACUGUCACCUUCUCUGAGAGAUUAAAA | 0.198 ± 0.028
AUCACUGUCACCUUCUCUGUCUGAUUUUGA | 0.0128 ± 0.0051
UAGACUGUCACGUUCUCUGAGAGAUUAUGA | 0.0108 ± 0.0035
UAGUGAGUGCACCUUCUCUGAGAGAUUAACA | 0.585 ± 0.048
UAGUCUGUCACGUUCUCUGUGAGAUUAACA | 0.214 ± 0.0097
UUCACUGUCACCUUCUCUCAGAGAUUAUCA | 0.0615 ± 0.011
UAGUCUGUCACCUUCUCACAGAGAUUAACA | 0.0188 ± 0.0059
UAGUGACACACCUUCUCUGACUCAUUAUGA | < 0.0001
UACUCUGUCACCUUCACUGAGAGAUUAACA | 0.505 ± 0.028
UUCAGUGUCACCUUGUCUGAGAGAUUAACA | 0.2 ± 0.029
UAGACUGUCACCUUCUCGAGAGAUUAACA | 0.058 ± 0.0086
AUCACUCUGACCUUCUCUGAGAGAUUAACA | 0.488 ± 0.026
UAGUGACUCACCUUCAUCUGAGAGAUUAACA | 0.014 ± 0.0037
UAGUGACACAUCUUCUCUGAGAGAUUAACA | 0.618 ± 0.035
AUCACUUUCACCUUCUCUGAGAGAUUAACA | 0.622 ± 0.027
UUCACUGUCACCUCUCUGAGAGAUUAACA | 0.501 ± 0.037
UAGUGACAGUCCUGUCUCUGAGAGAUUAACA | 0.0361 ± 0.0059
AUCACUGUCACCUUCUCUGAGAGUAUAACA | 0.136 ± 0.024
UUCACUGUCAGCUUCUCUGAGACAUUAACA | 0.0132 ± 0.0026
UAGUGACAGUGCUUCUCUGAGAGAUUAAACA | 0.0056 ± 0.0028

Sequence | pre-steady-state target cleavage rate
UAGUCUGCACCUUCUCUGAGAGAUUAACA | 0.608 ± 0.036
UAGUGACAGUCGUUCUCUGAGAGAUUAACA | 0.00753 ± 0.0037
UUCACUGUCACCUUCUCUGAGGAUUAACA | 0.114 ± 0.029
UAGACUGUCUCCUUCUCUGAGAGAUUAAGA | 0.207 ± 0.039
UUCACUGUCUCCUUCUCAGAGAGAUUAACA | 0.316 ± 0.023
UAGACUGUCACCUACUCUGACAGAUUAACA | 0.0552 ± 0.011
UAGUGACACACCUUCUCUCAGUGAUUAACA | 0.00544 ± 0.0035
UUCACUGUCAGCUUCUGUGAGAGAUUAACA | 0.516 ± 0.032
UACACAGUCACCUUCACUGAGAGAUUAACA | 0.423 ± 0.027
UUCACUGUCACCUUCUCUGAGAGUAUAACA | 0.192 ± 0.033
UAGACUGUCUCCUUCUCUGAGACAUUAACA | 0.0295 ± 0.0057
AUCACAGUCACCUUCUCUCAGAGAUUAACA | 0.139 ± 0.015
AUCACUGUCACCUUCUGUGAGUGAUUAACA | 0.0242 ± 0.0069
UAGUGACAGACCUUCUCUGAGAGAUAUAACA | 0.0271 ± 0.0091
UAGUGACAGACCUUCUGUGUGAGAUUAACA | 0.00826 ± 0.0031
UAGUGACACACGUUCUCUGAGAGUUUAACA | 0.0466 ± 0.0067
UUCACUGUCACCUUCUCAGAGAGAUUAACA | 0.384 ± 0.024
AUCACUGUCACCUUCUCUGAGAGAUUGACA | 0.448 ± 0.072
UAGUCUGUCACCUUCUCUGAGAGGAUUAACA | 0.36 ± 0.037
UAGACUGUCCACCUUCUCUGAGAGAUUAACA | 0.627 ± 0.063
UAGUCUGUCACCUUCACAGAGAGAUUAACA | 0.0478 ± 0.0067
UAGUCUGUCACCUUCUCUGAGAGAUAUACA | 0.21 ± 0.026
UUCACUGUCACCUUCUCUCAGAGAUAAACA | 0.0453 ± 0.0071
UAGACUGUCUGCUUCUCUGAGAGAUUAAGA | 0.0881 ± 0.018

Sequence | pre-steady-state target cleavage rate
AUCUCUGUCACCUUCUCUGAGAGAUUUACA | 0.379 ± 0.048
UACACUGUCACCUUCUCUGACACAUUAACA | 0.0788 ± 0.0095
UAGUGUGUCACCUUCAGUGAGAGAUUUUGA | 0.0067 ± 0.0051
UACACUGUCACCUUCUCUGAGAGUUUAAGA | 0.403 ± 0.095
UAGUCUGUCACCUUCACUGAGAGUUUAACA | 0.319 ± 0.057
UUCACUGUCACCAACUCUGAGAGAUUAAGA | 0.125 ± 0.024
UAGUGAGUCACCUUCUGUGAGAGAUUUUGA | 0.012 ± 0.0055
UAGUGUGUCACCUACUCUGUGAGAUUAACA | 0.139 ± 0.013
UUGACUGUCACCUUCUCUGAGAGAUUAACA | 0.777 ± 0.042
UAGUGAGAGUCCUUCUCUGAGAGAUUAAGA | 0.0217 ± 0.0053
UAGUGACUCACAUUCUCUGAGAGAUUAACA | 0.168 ± 0.0098
UACACUGUCACCUUCUGUGACAGAUUAACA | 0.0217 ± 0.0069
UUCACUGUCACCUUCUCUGAGAGAUUAACA [g2:g29:cont:t1A] | 0.717 ± 0.03
AACACUGUCACCUUCUCUGUGAGAUUAACA | 0.291 ± 0.015
UAGUGUGUCACCUUCUCUGAGAGCUUAACA | 0.245 ± 0.027
UACACUGUCAGCUUCUGUGAGAGAUUAACA | 0.373 ± 0.032
UACUCUGUCUCCUUCUCUGAGAGAUUAACA | 0.588 ± 0.044
UAGUGACAGUGGAAGUCUGAGAGUUAAACA | < 0.0001
AUCACUGUCACCUUCUGCUGAGAGAUUAACA | 0.215 ± 0.061
UUCACUGUCACCUUCUUGAGAGAUUAACA | 0.0655 ± 0.018
UAGUGACACAGCUUCUGUGAGAGAUUAACA | 0.0673 ± 0.0097
UAGUGUGUCACCUUCUCUGACAGAAUAACA | 0.0395 ± 0.0078
UAGUGAGUCACCUUGAGUGAGAGAUUAACA | 0.00539 ± 0.0029
UAGACUGACACCUUCUCUGAGACAUUAACA | 0.122 ± 0.012
